Data: PubChem BioAssay (NCI)
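The concentration for 50% growth inhibition is given as GI50.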 Not every entry of the source has a single result; some have several. The other results are left out here. The source may hold further records. Values that stand side by side are repeated measurements (runs, samples, wells, individuals or studies). Brackets tell where a record comes from. The letters are not those of the source and start again with each entry.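 The concentration for full growth arrest is given as TGI.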

Columns and labels:
Assay in all cases: growth of human tumour cells (NCI), 384-well format
[1] = test system: MDA-MB-468 breast
[2] = test system: NCI-H522 lung
[3] = test system: U251 glioblastoma
[4] = test system: UO-31 renal
[5] = test system: NCI-H460 NSCLC
[6] = test system: OVCAR-5 ovarian
[7] = test system: HOP-62 NSCLC
[8] = test system: A498 renal
[9] = test system: TK-10 renal
[10] = test system: A549 NSCLC
[11] = test system: KM12 colon
[12] = test system: SK-OV-3 ovarian
[13] = test system: DU-145 prostate
[14] = test system: MCF7 breast
[15] = test system: UACC-257 melanoma
[16] = test system: RXF 393 renal
[17] = test system: HT29 colon
[18] = test system: LOX IMVI melanoma

Structure (SMILES): CCc1nc(C(N)=O)c(Nc2ccc(N3CCC(N4CCN(C)CC4)CC3)c(OC)c2)nc1NC1CCOCC1
- TGI [1]: > 100 µM [sample A, mean of 2 tests] and 9.64 µM [sample B, 1 test]
- GI50 [2]: 4.98 µM [sample A, mean of 2 tests] and 181 nM [sample B, 1 test]
- TGI [2]: > 26.8 µM [sample A, mean of 2 tests] and 2.37 µM [sample B, 1 test]
- TGI [3]: > 100 µM [sample A, mean of 2 tests] and 3.94 µM [sample B, 1 test]
- TGI [4]: > 100 µM [sample A, 1 test] and 820 nM [sample B, 1 test]
- TGI [5]: > 100 µM [sample A, mean of 2 tests] and 1.64 µM [sample B, 1 test]
- TGI [6]: > 27.2 µM [sample A, mean of 2 tests] and 875 nM [sample B, 1 test]
- TGI [7]: > 100 µM [sample A, mean of 2 tests] and 7.84 µM [sample B, 1 test]
- TGI [8]: > 65.2 µM [sample A, mean of 2 tests] and 3.75 µM [sample B, 1 test]
- TGI [9]: > 100 µM [sample A, mean of 2 tests] and 7.05 µM [sample B, 1 test]
- TGI [10]: > 24.6 µM [sample A, mean of 2 tests] and 1.57 µM [sample B, 1 test]
- TGI [11]: > 100 µM [sample A, mean of 2 tests] and 218 nM [sample B, 1 test]
- TGI [12]: > 100 µM [sample A, mean of 2 tests] and 532 nM [sample B, 1 test]
- TGI [13]: > 100 µM [sample A, 1 test] and 6.02 µM [sample B, 1 test]
- TGI [14]: > 100 µM [sample A, mean of 2 tests] and 8.78 µM [sample B, 1 test]
- GI50 [15]: 3.59 µM [sample A, mean of 2 tests] and 257 nM [sample B, 1 test]
- TGI [15]: > 20.6 µM [sample A, mean of 2 tests] and 1.31 µM [sample B, 1 test]
- TGI [16]: 7.59 µM [sample A, mean of 2 tests] and 745 nM [sample B, 1 test]
- TGI [17]: 6.39 µM [sample A, 1 test] and 570 nM [sample B, 1 test]
- TGI [18]: 11.7 µM [sample A, mean of 2 tests] and 892 nM [sample B, 1 test]
